The list shows a part of the results.
tested on: HepG2; test: cytotoxicity call (relative viability < 0.9); conditions: 10 µM

SMILES | cytotoxicity call
COc1ccc(S(=O)(=O)N(C)C[C@@H]2Oc3ccc(NC(=O)C4CC4)cc3CC(=O)N([C@@H](C)CO)C[C@H]2C)cc1 | inactive
Cl.Cl.O=C1c2c(O)ccc(O)c2C(=O)c2c(NCCNCCO)ccc(NCCNCCO)c21 | active
C[C@@H]1CN([C@H](C)CO)C(=O)c2cccc(NC(=O)c3ccc(-c4nccs4)cc3)c2O[C@@H]1CN(C)C(=O)Nc1ccccc1 | inactive
COc1cccc(OCc2ccc(Cn3nc(NC(=O)NCc4ccc(F)cc4)c4ccccc43)cc2)c1 | inactive
Cc1noc(C)c1NC(=O)N(C)C[C@@H]1OCCCC[C@@H](C)Oc2ccc(NS(=O)(=O)c3ccc(Cl)cc3)cc2C(=O)N([C@@H](C)CO)C[C@H]1C | inactive
C[C@H]1CN([C@@H](C)CO)C(=O)Cc2cc(NC(=O)Cc3cn(C)c4ccccc34)ccc2O[C@H]1CN(C)Cc1ccc(C(F)(F)F)cc1 | active
C[C@H](CO)N1C[C@H](C)[C@H](CN(C)Cc2ccc(Oc3ccccc3)cc2)Oc2c(NS(=O)(=O)c3cccs3)cccc2C1=O | inactive
CN1C(=O)c2cc(NS(=O)(=O)c3ccc(F)cc3)ccc2OC[C@@H]2O[C@H](CC(=O)NCC(F)(F)F)CC[C@H]21 | inactive
Cc1ccc(S(=O)(=O)N[C@H]2C=C[C@@H](CC(=O)NCCN3CCCCC3)O[C@H]2CO)cc1 | inactive
CCOC(=O)c1n[nH]c(=S)[nH]c1=O | inactive
C[C@@H]1CN([C@H](C)CO)C(=O)CCCn2cc(nn2)CO[C@@H]1CN(C)C(=O)Nc1ccc(C(C)(C)C)cc1 | inactive
Cc1noc(C)c1NC(=O)Nc1ccc2c(c1)C(=O)N(C)[C@H]1CC[C@H](CC(=O)Nc3ccc4c(c3)CCCC4)O[C@@H]1CO2 | inactive
C[C@@H]1CCCCO[C@@H](CN(C)Cc2ccncc2)[C@@H](C)CN([C@@H](C)CO)C(=O)c2cc(NC(=O)C3CCCCC3)ccc2O1 | inactive
C[C@H](NC(=O)C[C@@H]1C[C@@H]2c3cc(NC(=O)Nc4ccc(C(F)(F)F)cc4)ccc3O[C@@H]2[C@H](CO)O1)c1ccccc1 | inactive
CC(C)N1C[C@@H](CN(C)CCc2ccc(Cl)c(Cl)c2)Oc2c(NC(=O)c3ccncc3)cccc2C1=O | inactive
O=C(CN1CCOCC1)NCC[C@H]1CC[C@H](NC(=O)c2ccccc2F)[C@@H](CO)O1 | inactive
C[C@@H]1CN([C@@H](C)CO)C(=O)c2cccc(NS(C)(=O)=O)c2O[C@@H]1CN(C)S(=O)(=O)c1ccccc1 | inactive
C[C@H](CO)N1C[C@H](C)[C@H](CN(C)C(=O)NC2CCCCC2)Oc2c(NC(=O)c3cnccn3)cccc2C1=O | inactive
CC(=O)OC12COC1CC(O)C1(C)C(=O)C(O)C3=C(C)C(OC(=O)C(O)C(NC(=O)OC(C)(C)C)c4ccccc4)CC(O)(C(OC(=O)c4ccccc4)C21)C3(C)C.O.O.O (centres undefined) | active
COc1oc(C(=O)NC2CCCCC2)c(-c2ccc(Cl)cc2)c1S(=O)(=O)c1ccc(Cl)cc1 | inactive
Cc1cc(OCc2nnc(SC3CCCC3)n2-c2cccnc2)ccc1-c1ccc(S(C)(=O)=O)cc1 | active
COc1ccc(NC(=O)Nc2ccc3c(c2)C(=O)N([C@H](C)CO)C[C@H](C)[C@@H](CN(C)C(=O)NC(C)C)OCCCC[C@@H](C)O3)cc1 | inactive
Cc1noc(C)c1NC(=O)Nc1ccc2c(c1)C(=O)N([C@H](C)CO)C[C@H](C)[C@H](CN(C)Cc1ccc3c(c1)OCO3)OCCCC[C@H](C)O2 | inactive
COc1ccc(S(=O)(=O)N(C)C[C@@H]2Oc3cc(C#CC4CCCC4)ccc3S(=O)(=O)N([C@@H](C)CO)C[C@@H]2C)cc1 | inactive
Cc1cc(C(=O)Nc2cccc3c2O[C@@H](CN(C)S(=O)(=O)c2ccccc2)[C@@H](C)CN([C@@H](C)CO)C3=O)n(C)n1 | inactive
CC(=O)n1cc([C@H]2C=C(C(=O)NCc3ccccc3)O[C@@H](OCc3ccc(CO)cc3)C2)c2ccccc21 | inactive
C[C@@H]1CCCCO[C@H](CN(C)Cc2ccc3c(c2)OCO3)[C@@H](C)CN([C@@H](C)CO)C(=O)c2cc(NS(=O)(=O)c3ccc(F)cc3)ccc2O1 | active
C/C=C1\[C@H](O[C@@H]2O[C@H](CO)[C@@H](O)[C@H](O)[C@H]2O)OC=C(C(=O)OC)[C@H]1CC(=O)OC | inactive
C[C@H]1CN([C@@H](C)CO)S(=O)(=O)c2ccc(C#CC3(O)CCCC3)cc2O[C@@H]1CN(C)C(=O)Nc1cccc(F)c1 | inactive
